In PubChem BioAssay AID1745853 (National Center for Advancing Translational Sciences (NCATS), 2022):
Some of the results follow. These are further read-outs of the screen, such as a control signal, another cell line or another target. No call is given for them.

Tests used:
Assay in all cases: Primary Screen for Target Class Profiling of Small Molecule Inhibitors of Methyltransferases
[1] = target: Glycine N-methyltransferase (Homo sapiens) (UniProt Q14749); details: purified enzyme, MTase-Glo SAH luminescence; measured here: GNMT inhibition; at 40 µM; stronger effect = lower value
Outline: (§1)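 Each enzyme was assayed with SAM and its substrate. SAH formation detected by MTase-Glo luminescence; single-point 40 uM screen[…].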

[2] = target: Guanidinoacetate N-methyltransferase (Homo sapiens) (UniProt Q14353); details: purified enzyme, MTase-Glo SAH luminescence; measured here: GAMT inhibition; at 40 µM; stronger effect = lower value
Outline: as §1

[3] = target: Histamine N-methyltransferase (Homo sapiens) (UniProt P50135); details: purified enzyme, MTase-Glo SAH luminescence; measured here: HNMT inhibition; at 40 µM; stronger effect = lower value
Outline: as §1

[4] = target: Nicotinamide N-methyltransferase (Homo sapiens) (UniProt P40261); details: purified enzyme, MTase-Glo SAH luminescence; measured here: NNMT inhibition; at 40 µM; stronger effect = lower value
Outline: as §1

[5] = target: Phenylethanolamine N-methyltransferase (Homo sapiens) (UniProt P11086); details: purified enzyme, MTase-Glo SAH luminescence; measured here: PNMT inhibition; at 40 µM; stronger effect = lower value
Outline: as §1
% is set by controls: 0 for no effect and ±100 for the full control effect.

Row | Compound | activity change, negative = inhibition [1] [%] | activity change, negative = inhibition [2] [%] | activity change, negative = inhibition [3] [%] | activity change, negative = inhibition [4] [%] | activity change, negative = inhibition [5] [%]
1 | COc1ccc(OC)c(CNC(=O)c2cc3n(n2)CC(C)(C(=O)NC2CCCCCC2)N(C)C3=O)c1 (stereo not given) | -2.9 | 4.18 | 1.17 | -0.997 | 1.56
2 | CC1CCN(S(=O)(=O)c2ccc3c(ccn3CCC(=O)NC3CCCC(C)C3C)c2)CC1 (stereo not given) | -3.84 | 1.04 | -7.22 | -11.3 | -5.77
3 | O=C(Nc1ncc([N+](=O)[O-])s1)c1ccccc1O | -15.2 | -7.22 | -4.82 | -15.1 | -4.45
4 | CCCc1cc2c(-c3ccccc3)cc(=O)oc2cc1OCc1ccc(C(=O)OC)o1 | -5.69 | 5.72 | 1.27 | -1.58 | -2.84
5 | O=C1NC2(CCN(Cc3ccccc3C(F)(F)F)C2)COc2ccccc21 (stereo not given) | -5.29 | -3.23 | -2.72 | -9.95 | -4.69
6 | Cc1cc(C)cc(-c2ccc(CN3CCCC(N[S+](=O)([O-])c4cccs4)C3)cc2)c1 (stereo not given) | -0.584 | -0.409 | 0.2 | 0.85 | 0.847
7 | CCOC(=O)c1ccc(OCCC2CCN(c3ccc(C)nn3)CC2)cc1 | -11 | 6.44 | 7.79 | -30 | -6.91
8 | OC[C@H]1O[C@@H](Oc2ccccc2)[C@H](O)[C@@H](O)[C@@H]1O | 4.42 | 6.69 | 11.6 | -5.41 | 6.69
9 | Cn1ncc(Cl)c1-c1cc(C(=O)N[C@H](CN)Cc2ccc(F)c(F)c2)oc1Cl | 0.132 |  | 4.07 |  | 
10 | CN1C(=O)c2cc(C(=O)N3CCN(c4ccccc4)CC3)nn2CC1(C)C(=O)NC1CCCCCC1 (stereo not given) | -3.48 | 0 | -0.642 | -1.9 | -3
11 | Cc1ccc(CCNC(=O)c2cc3n(n2)CC(C)(C(=O)NCc2ccccc2)N(C)C3=O)cc1 (stereo not given) | 1.33 | 1.03 | -7.58 | 1.54 | -2.29
12 | O=C(CCc1nnc2n(Cc3ccc(F)cc3)c(=O)c3ccccc3n12)NC1CCCCC1 | -3.3 | 0.224 | 9.69 | 8.74 | 2.88
13 | CCCCN1C(=O)c2cc(C(=O)NC3CCCCC3)nn2CC1(C)C(=O)NC1CCCC1 (stereo not given) | -0.103 | 5.22 | -2.59 | -0.964 | -0.614
14 | O=C(C1CCCN1C(=O)c1ccccc1Cl)N1CCC(c2nc3ccncc3[nH]2)CC1 (stereo not given) | -6.36 | -5.32 | -9.73 | -10.4 | 0.255
15 | O=C(c1ccc(N2CCC(O)CC2)nc1)N1CCC(N2CCOCC2)CC1 | -2.9 | -9.52 | -2.53 | -9.26 | -5.5
16 | CN(C)Cc1nnc(C2CC(NC(=O)CC3Cc4ccccc4C3)C2)n1C (stereo not given) | -4.97 | -5.33 | -2.15 | -9.34 | -6.67
17 | COc1cccc(C(O)c2nc(C(=O)N3CCN(c4ccccn4)CC3)c(C)o2)c1 (stereo not given) | -4.38 | -3.8 | -3.48 | -5.56 | -0.089
18 | Fc1ccc(-c2nc3n(c2-c2ccncc2)CCS3)cc1 |  | 6.22 |  | -16 | 3.6
19 | CCOC(=O)c1cc2n(n1)CC(C)(C(=O)NCc1ccccc1)N(Cc1ccccc1Cl)C2=O (stereo not given) | 4.19 | 0 | 5.06 | 1.24 | 0.402
20 | C=C1C(=O)O[C@@H]2/C=C(\CO)CC/C=C(/C=O)C[C@H](O)[C@@H]12 | 1.07 | -0.441 | 13 | -9.15 | 2.66
21 | CC/C=C\CC1C(CC(=O)O)CCC1OC1OC(CO)C(O)C(O)C1O (stereo not given) | 0 | 6.9 | 11.4 | -4.64 | 4
22 | CC(C)(C)c1cc2n(n1)CC(C)(C(=O)NC1CCCCCC1)N(Cc1ccccc1F)C2=O (stereo not given) | 1.89 | 0 | 3.78 | 2.93 | -0.669
23 | CCc1nc2c(c(-c3ccc(O)cc3)n1)CN(Cc1ccc(NC(C)=O)cc1)CC2 | -15.9 | -1.81 | -22 | -7.47 | -5.06
24 | O=C(NC1CCN(C(=O)c2ccc(-c3cncnc3)cc2)CC1)c1ccccc1F | -11.1 | -12.2 | -6.72 | -14.8 | -12.7
25 | COc1cccc(CN2C(=O)c3cc4occc4n3CC2(C)C(=O)NC2CCCCCCC2)c1OC (stereo not given) | -2.08 | 4.25 | -3.15 | -6.83 | -3.62
26 | COc1ccc(C(=O)N2CCCCC23Cc2ccccc2NC3=O)cc1 (stereo not given) | -5.35 | -0.572 | -0.927 | -1.82 | 1.38
27 | Cc1cccc(CNC(=O)Cn2ccc3cc(S(=O)(=O)N4CCCCC4)ccc32)c1 | -0.573 | 0 | -2.05 | -4 | -0.668
28 | O=C(O[C@@H]1O[C@H](CO)[C@@H](O)[C@H](O)[C@H]1O)c1c(O)cc(O)cc1/C=C/c1ccccc1 | 3.9 | 6.72 | 11.1 | -5.33 | 8.36
29 | COCCNC(=O)c1cc2n(n1)CC(C)(C(=O)NCc1ccc(F)cc1)N(C)C2=O (stereo not given) | 2.4 | 0.299 | 1.96 | 2.77 | -1.38
30 | Cc1ccc(C)c(N2C(=O)c3cc4sccc4n3CC2(C)C(=O)NC2CCCCCC2)c1 (stereo not given) | -7.94 | 1.43 | -8.73 | -3.22 | -7.01
